Values joined by “and” are separate entries in the source; they are usually repeats but may differ in a detail not shown here. Equal values may be shown once. The whole screen tested about 110,000 compounds, of which about 230 (0.21%) showed an effect of 50% or more. This is one part of the list.
Molecular target: DPAP1 (Plasmodium falciparum, UniProt Q8IIJ9)
Assay: primary screen, percent inhibition; read by cleavage of a fluorogenic dipeptide substrate; higher = more effect of the substance
Set-up: species or system P. falciparum D10 trophozoite lysates; single well
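Also: 30 min substrate incubation versus DMSO and 10 µM JCP410 controls.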

Chain of DPAP1 (Q8IIJ9 whole entry, looked up): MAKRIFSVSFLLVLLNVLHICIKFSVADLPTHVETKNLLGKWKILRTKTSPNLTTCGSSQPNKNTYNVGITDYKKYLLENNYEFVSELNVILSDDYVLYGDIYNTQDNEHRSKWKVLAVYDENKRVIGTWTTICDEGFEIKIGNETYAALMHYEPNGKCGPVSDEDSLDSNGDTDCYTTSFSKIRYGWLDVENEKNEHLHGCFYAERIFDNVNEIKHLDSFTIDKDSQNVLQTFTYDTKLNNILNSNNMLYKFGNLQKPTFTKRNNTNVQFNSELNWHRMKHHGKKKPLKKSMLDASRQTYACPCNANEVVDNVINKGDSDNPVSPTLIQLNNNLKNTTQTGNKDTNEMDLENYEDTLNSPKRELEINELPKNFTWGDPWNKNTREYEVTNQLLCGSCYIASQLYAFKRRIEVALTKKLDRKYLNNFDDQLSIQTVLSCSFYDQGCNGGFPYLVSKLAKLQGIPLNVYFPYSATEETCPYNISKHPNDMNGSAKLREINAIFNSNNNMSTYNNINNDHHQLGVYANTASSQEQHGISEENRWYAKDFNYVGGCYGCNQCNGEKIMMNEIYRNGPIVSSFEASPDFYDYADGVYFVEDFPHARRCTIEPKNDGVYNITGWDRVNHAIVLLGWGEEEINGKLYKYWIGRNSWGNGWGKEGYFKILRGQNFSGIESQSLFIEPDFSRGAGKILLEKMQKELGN

Row | SMILES | % Inhibition @ 10 uM
1 | Cc1onc(-c2ccccc2Cl)c1C(=O)Nc1ccc(S(N)(=O)=O)cc1 | 0.0265%
2 | COc1ccc(CN2CCN(Cc3csc(C)c3)CC2)c(OC)c1OC | 5.15%
3 | Cn1c(C(=O)N2CCC(C(=O)N3CCN(c4ccccn4)CC3)CC2)cc2sccc21 | 6.46%
4 | CC(C)OC(=O)c1cnn2c(C(F)(F)F)cc(-c3ccc(F)cc3)nc12 | -1.93%
5 | CCc1ccc(OCC(=O)Nc2ccc(S(=O)(=O)N3CCCCC3)cc2)c(Br)c1 | -1.92%
6 | O=CN(/C=C1\Sc2ccccc2C1=O)Cc1ccccc1 | 21.8%
7 | COc1ccc(S(=O)(=O)N(C)CC(=O)Nc2ccc(F)cc2F)cc1 | -1.36%
8 | COCCn1c(CN2CCC(Cc3ccccc3)CC2)nc2c1c(=O)n(C)c(=O)n2C | -1.43%
9 | CCCCc1ccc(NC(=O)c2ccn(C)n2)cc1 | -0.736%
10 | COc1ccc(C2=NC(=O)C3=Cc4cccc(C)c4OC3N2)c(OC)c1OC (stereo not shown) | 3.61%
11 | O=C(NCc1ccncc1)C1CCN(S(=O)(=O)c2ccc(Br)cc2)CC1 | -1.6%
12 | CC1=C(C#N)C(c2cccnc2)C2=C(O)CC(c3ccc(Cl)cc3)CC2=N1 (stereo not shown) | -0.436%
13 | CCc1nc(=O)c2ccccc2n1-c1cccc(C(F)(F)F)c1 | -3.71%
14 | COc1ccc(C2CC3=NC(C)=C(C(=O)Nc4ccccn4)C(c4cccs4)C3=C(O)C2)cc1 (stereo not shown) | -1.38%
15 | NC(=O)CSc1nnc(CSc2ncccn2)n1-c1ccc(Cl)cc1 | -0.942%
16 | Cc1ccc(C(C)C)c(OCC(=O)Nc2ccccc2)c1 | -6.07%
17 | CC1(C(=O)O)CCC(C(=O)NC2CCCCC2)C1(C)C (stereo not shown) | 2.33%
18 | COc1ccc(CNC(=O)c2cccc3c2C(=O)N(CC2CCCO2)C3)cc1 (stereo not shown) | 0.708%
19 | O=c1c2c3c(sc2n2cnnc2n1Cc1ccccc1)CCCC3 | 1.72%
20 | CCn1c(SCC(=O)c2ccccc2)nc2c1c(=O)n(C)c(=O)n2C | 0.851%
21 | O=C(O)C1CCN(c2nc3ncccc3nc2-c2ccccc2)CC1 | 0.708%
22 | COC(=O)C1=C(C)NC(=O)NC1c1ccc(C(C)C)cc1 (stereo not shown) | 0.00773%

Row | SMILES | % Inhibition @ 10 uM
23 | Cc1cc(C)c(S(=O)(=O)Nc2cc(C)ccc2C)c(C)c1 | 2.46%
24 | CCCCN(CCCC)C(=O)C1CCC(CNS(=O)(=O)c2cccc3nsnc23)CC1 (stereo not shown) | -2.25%
25 | CCN(CC)CCN(CC)Cc1ccccc1C(F)(F)F | -2.95%
26 | Cc1ccccc1-c1nnc(C2CCN(S(=O)(=O)c3ccc4c(c3)CCCC4)CC2)o1 | -8.68%
27 | Nc1ccc(S(=O)(=O)Nc2nc3ccccc3nc2NCCc2ccccc2)cc1 | 3.31%
28 | Cc1ccc(-n2c(SCc3nc(-c4cccs4)no3)nnc2-c2ccncc2)cc1 | 6.01%
29 | CCOC(=O)C1=C(C)N=C2SCC(=O)N2C1c1ccc(N(C)C)cc1 (stereo not shown) | 1.84%
30 | COc1ccc(CCN(Cc2ccccn2)S(=O)(=O)c2ccc(C(C)(C)C)cc2)cc1OC | 0.387%
31 | Cc1n[nH]c(SCC(=O)c2ccc(Cl)cc2)n1 | 2.38%
32 | CC1CCc2c(sc(N)c2C(=O)Nc2cccc3ccccc23)C1 (stereo not shown) | 1.83%
33 | COc1cc2c(cc1OC)CC1(CCCC1)N=C2 | -2.35% and -3.63%
34 | CC(C)(C)c1[nH]nc2c1C(c1cccc3ccccc13)C(C#N)=C(N)O2 (stereo not shown) | 3.65%
35 | Cc1sc2nc(SCC(N)=O)n(-c3ccccc3)c(=O)c2c1C | 6.24%
36 | CC(C)n1c(CNC(=O)c2ccccc2)nc2ccccc21 | -0.228%
37 | CCOc1ccc(CN2CCN(CCO)CC2)cc1 | -2.6%
38 | CCCNC(=O)c1nn2c(C(F)(F)F)cc(-c3ccccc3)nc2c1Br | -3.27%
39 | O=C(CCC(=O)N1CCSc2ncccc21)N1CCCCC1 | -3.34%
40 | CC1CCC(N2CCCCC2CO)CC1 (stereo not shown) | -7.5%
41 | CCOc1ccc(Nc2nc(N)c3ccccc3n2)cc1 | -0.519%
42 | COc1ccc(C(=O)Nc2ccc(S(=O)(=O)Nc3nc(C)cc(C)n3)cc2)cc1 | -2.21%
43 | Cc1cc(OCC(=O)Nc2cccc(Cl)c2)ccc1Br | -3.23%
44 | O=C(Nc1cccc(Br)c1)c1ccc(F)cc1 | 1.48%

Row | SMILES | % Inhibition @ 10 uM
45 | CCc1ccccc1NC(=O)CN(c1cc(Cl)ccc1OC)S(C)(=O)=O | 2.02%
46 | CN1CCCN(CC2=CC[C@H]3C[C@@H]2C3(C)C)CC1 | -2.56%
47 | CCc1ccc2oc(-c3ccccc3)c/c(=N\CC(=O)O)c2c1 | 5.44%
48 | CC(C)NC(=O)c1ccc(CSCc2ccccc2Cl)o1 | 2.05%
49 | CCN1CCN(c2oc(/C=C/c3cccs3)nc2C#N)CC1 | 3.27%
50 | Cc1ccc(/C(=C\CN2CCCC2)c2ccccn2)cc1 | 3.48%
51 | CC(C)C[C@H](NC(=O)c1ccc2nc(-c3cccnc3)oc2c1)C(=O)NCC#N | 0.173%
52 | CCOC(=O)C1CCN(C(=O)c2ccc(C#CC3(O)CCCCC3)cc2)CC1 | 2.65%
53 | CCOC(=O)C1CCN(Cc2ccc(C)o2)CC1 | 1.42%
54 | CC(NC(=O)c1cc(-c2ccc(Cl)cc2)[nH]n1)c1ccc2c(c1)OCCO2 (stereo not shown) | 1.39%
55 | Cc1c(C(=O)N2CCCC2)oc2c1-c1nn(CC(=O)NCCCN3CCCC3=O)cc1CC2 | -3.16%
56 | COc1cccc(C(=O)NCCSc2c[nH]c3ccccc23)c1OC | -4.06%
57 | CC(=O)c1cccc(NC(=O)/C(=C\c2cccnc2)NC(=O)c2ccc(C)cc2)c1 | 4.65%
58 | CC(NC(=O)c1cccs1)c1cc2c(cc1Br)OCCCO2 (stereo not shown) | 0.475%
59 | COc1cccc(C2NC(=O)NC(C)=C2C(=O)OC(C)(C)C)c1 (stereo not shown) | 4.74%
60 | O=C(O)CCC(=O)Nc1ccc(N2C(=O)C3C4CCC(C4)C3C2=O)cc1 (stereo not shown) | -7.28%
61 | COC(=O)c1ccccc1Nc1nc(-c2ccccc2)cc(-c2ccc(C)cc2)n1 | -5.62%
62 | CC1CCCC(C)N1CCCNC(=O)Nc1cn(C)c(=O)c2ccccc12 (stereo not shown) | 6.54%
63 | CC(C)NC(=O)c1cnn2c1NC(c1ccc(Br)cc1)CC2C(F)(F)F (stereo not shown) | -4.4%
64 | Cc1cc(O)c2c(O)n(-c3ccccc3)nc2n1 | 0.032%

From article PMC6919601, “Identification of Plasmodium dipeptidyl aminopeptidase allosteric inhibitors by high throughput screening” (PLoS ONE, 2019)
